From PubChem BioAssay AID1745853 (National Center for Advancing Translational Sciences (NCATS), 2022)
This is one part of the list. The main result of the screen is listed elsewhere. These columns were measured beside it and carry no call.

Legend:
Experiment in all cases: Primary Screen for Target Class Profiling of Small Molecule Inhibitors of Methyltransferases
[1] = molecular target: Glycine N-methyltransferase (Homo sapiens) (UniProt Q14749); details: purified enzyme, MTase-Glo SAH luminescence; measured here: GNMT inhibition; at 40 µM; stronger effect = lower value
Method in brief: (§1)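 Each enzyme was assayed with SAM and its substrate. SAH formation detected by MTase-Glo luminescence; single-point 40 uM screen[…].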

[2] = molecular target: Guanidinoacetate N-methyltransferase (Homo sapiens) (UniProt Q14353); details: purified enzyme, MTase-Glo SAH luminescence; measured here: GAMT inhibition; at 40 µM; stronger effect = lower value
Method in brief: as §1

[3] = molecular target: Histamine N-methyltransferase (Homo sapiens) (UniProt P50135); details: purified enzyme, MTase-Glo SAH luminescence; measured here: HNMT inhibition; at 40 µM; stronger effect = lower value
Method in brief: as §1

[4] = molecular target: Nicotinamide N-methyltransferase (Homo sapiens) (UniProt P40261); details: purified enzyme, MTase-Glo SAH luminescence; measured here: NNMT inhibition; at 40 µM; stronger effect = lower value
Method in brief: as §1

[5] = molecular target: Phenylethanolamine N-methyltransferase (Homo sapiens) (UniProt P11086); details: purified enzyme, MTase-Glo SAH luminescence; measured here: PNMT inhibition; at 40 µM; stronger effect = lower value
Method in brief: as §1
% is set by controls: 0 for no effect and ±100 for the full control effect.

Structure (SMILES) | activity change, negative = inhibition [1] [%] | activity change, negative = inhibition [2] [%] | activity change, negative = inhibition [3] [%] | activity change, negative = inhibition [4] [%] | activity change, negative = inhibition [5] [%]
O=C(c1ccccc1)N1CCC2(CC1)C(=O)NCN2Cc1ccc(Cl)cc1 | -2.16 | 1.12 | 1.02 | -0.33 | 2.21
Cc1ccc(NC(=O)Cn2c(=O)oc3cc(S(=O)(=O)NC4CCCC4)ccc32)cc1 | 3.55 | 0 | 8.67 | 6.92 | -0.741
COc1cccc(CNC(=O)CCc2nnc3n(CCc4ccccc4)c(=O)c4ccccc4n23)c1 | -1.36 | 0 | 8.25 | 1.38 | 0.701
COc1cc(OC)cc(N2C(=O)c3cc(-c4cccs4)nn3CC2(C)C(=O)NC2CCCCC2)c1 (stereo unspecified) | -3.65 | 4.53 | 2.16 | 0 | -2.17
Cc1ccc(CCNC(=O)Cn2ccc3cc(S(=O)(=O)N4CCCC4)ccc32)cc1 | -5.21 | 0.133 | -7.39 | -7.52 | -4.76
Cc1nn2c(c1-c1cccnc1N1CCOCC1)N(C(=O)c1cc3ccccc3n1C)CCC2 | -2.71 | -5.26 | 0.237 | -12.5 | -6.32
O=C(O)c1cc(I)ccc1NC(=O)[C@H](Cc1ccccc1)NCc1ccccc1 | -13.5 | 1.75 | 10.7 | -16.1 | 3.88
CC(C)CNC(=O)c1ccc2c(=O)n(C(C)C)c3nn(CC(=O)Nc4ccccc4Cl)c(=O)n3c2c1 | 4.05 | 0 | 11 | 7.33 | 7.41
COCC(=O)NC[C@H]1O[C@@H](CO)[C@@H](O)[C@H]1N1CCc2ccccc2C1 | 0.583 | -6.84 | 0.723 | 6.1 | -7.37
CC(C)(C)CC(=O)N1CCN2C(=O)c3ccc(Cl)cc3NC(=O)[C@H]2C1 | -0.048 | 0.025 | 0.285 | -3.06 | -12.3
Cc1ccc(Cn2c(=O)c3ccccc3n3c(-c4ccc(F)c(F)c4)nnc23)cc1 | -6.4 | 3.03 | 3.55 | 4.94 | -3.57
COc1ccccc1CN1CCCC(CN(CCN(C)C)C(=O)c2ccccc2OC)C1 (stereo unspecified) | -2.43 | -2.55 | -4.39 | -7.73 | 14.9
CC(=O)CC(=O)Nc1ccc(Cl)c(C(F)(F)F)c1 | -4.25 | 7.67 | -3.66 | -16.3 | -13.4
CN(CCCN1c2ccccc2CCc2ccccc21)C(=O)C1CNCCO1 (stereo unspecified) | -6.94 | -4.78 | -5.75 | -16.7 | -4.32
Cc1ccc(CCNC(=O)CCc2nnc3n(Cc4ccccc4)c(=O)c4ccccc4n23)cc1 | -4.83 | 2.62 | 9.84 | 13.5 | 3.58
CN1CCN(C2=Nc3ccccc3Nc3ccc(OS(=O)(=O)C(F)(F)F)cc32)CC1 | -4.7 | -3.9 | 6.02 | -22.7 | -0.888
COC(=O)Cn1c(=O)oc2cc(S(=O)(=O)NCCN3CCC(C)CC3)ccc21 | 4.23 | 0 | 1.68 | 6.78 | 2.59
CCC(C)NC(=O)c1ccc2c(=O)n(CC(C)C)c3nn(Cc4cccc(OC)c4)c(=O)n3c2c1 (stereo unspecified) | 3.61 | 0.61 | 8.43 | 2.73 | 8.66
CC1CCN(CCNS(=O)(=O)c2ccc3c(c2)oc(=O)n3C)CC1 | 4.26 | 13.6 | -26.7 | 13.7 | 0.18
COc1ccc(N2CC3CCC(C2)N3CC2CCCC2)cc1 | -3.85 | -4.5 | -22.1 | -8.61 | -18.9
COc1cccc(-c2cc(C3CCN(C(=O)Nc4ccccc4C(F)(F)F)CC3)[nH]n2)c1 | -6.38 | 0.028 | -2.59 | -6.89 | -4.76

Structure (SMILES) | activity change, negative = inhibition [1] [%] | activity change, negative = inhibition [2] [%] | activity change, negative = inhibition [3] [%] | activity change, negative = inhibition [4] [%] | activity change, negative = inhibition [5] [%]
O=C(NCCCCN1CCN(c2cccc(Cl)c2Cl)CC1)c1cc2ccccc2s1 | -0.797 | 0.624 | 0.017 | -26.4 | -24.2
Cc1cccc(=O)n1CCC(=O)NCc1cc2n(n1)CCN(C(=O)N(C)C)C2 | -3.51 | 0.24 | 1.84 | -1.84 | 0.164
O=C1Nc2ccccc2C2(CCN(C(=O)c3ccccc3F)C2)O1 (stereo unspecified) | -30.4 | -7.29 | -5.51 | -21.9 | -17.8
O=C(NCc1cccc(Cl)c1)c1sc(=S)n2c1[nH]c(=O)c1cc3c(cc12)OCO3 | -63.2 | -1.03 | -4.81 | -74.7 | -59.9
Cc1ccc(CC(=O)N2CCC3(C2)C(=O)N(C)c2ccccc23)cc1 (stereo unspecified) | -5.01 | -2.65 | -2.63 | -2.96 | 1.03
Fc1ccc2c(CCNCc3cccc(OCC(F)(F)C(F)F)c3)c[nH]c2c1 | -4.26 | 4.39 | -53 | -19.1 | -10.2
O=C(Cn1nc2n(Cc3ccccc3)c(=O)c3ccccc3n2c1=O)Nc1cc(F)ccc1F | 5.89 | 0.886 | 6.38 | 0.621 | 6.37
CC(Sc1nc2c(cnn2-c2cccc(Cl)c2)c(=O)[nH]1)C(N)=O (stereo unspecified) |  | -22.6 |  | -30.5 | -27
CCC(C)NC(=O)c1ccc2c(=O)n(C(C)C)c3nn(Cc4ccccc4)c(=O)n3c2c1 (stereo unspecified) | -4.82 | -1.82 | 7.78 | -7.8 | -4.16
CC(c1cccc(-c2cccc(C(=O)N(C)C)n2)c1)N1CCCC1 (stereo unspecified) | -5.88 | -11.2 | -7.13 | -16.1 | -16.7
O=C(NC1CCCCC1)c1ccc2nnc(Cc3ccc(Cl)cc3)n2c1 | -7.18 | -0.218 | -31.4 | -10.1 | 0.713
CC(C)=CCc1c(O)cc2oc3cc(C)cc(O)c3c2c1C | -3.22 | -0.636 | -2.25 | -10.8 | -0.173
Cc1cc(C)c2c(N)c(C(=O)NCc3ccc(Cl)cc3)sc2n1 | -21 | 0.479 | -38.2 | -14.6 | -1.89
COc1ccc(OC)c2c1cc1n2CC(C)(C(=O)NC2CCCCC2)N(Cc2ccc(C)cc2)C1=O (stereo unspecified) | -19 | -0.482 | -6.06 | -11.8 | -14.3
CCNS(=O)(=O)c1ccc(Cl)c(-c2nnc(-c3ccccc3)o2)c1 | -15.6 | 1.34 | 3.93 | -2.16 | -0.986
C=CCN1CCN(C(=O)c2ccc3c(c2)C(O)CCCCCN3CCOC)CC1 (stereo unspecified) | -0.283 | -3.68 | -1.47 | -6.39 | -8.42
O=C(OCCOCCO)c1ccccc1Nc1cccc(C(F)(F)F)c1 | 2.79 | 17.4 | 5.22 | -6.95 | 2.8
CCN(CC)c1nc2c(-c3cccc(F)c3)nnn2c2ccccc12 | -5.64 | -0.544 | -5.34 | -7.64 | -13.2
CCN1C(=O)c2cc(C(=O)NCc3cccnc3)nn2CC1(C)C(=O)NC1CCCC1 (stereo unspecified) | -2.29 | 0.735 | -0.706 | -2.04 | -1.52
CC(C)CNC(=O)c1ccc2c(=O)n(Cc3ccccc3)c3nn(CC(=O)NC4CCCC4)c(=O)n3c2c1 | 5.63 | 0.353 | 11.5 | -3.51 | 3.01
O=C(CCc1nnc2n(CCc3ccccc3)c(=O)c3ccccc3n12)NCc1ccc(Cl)cc1 | -4.97 | 0 | 1.97 | 5.66 | -2.44

Structure (SMILES) | activity change, negative = inhibition [1] [%] | activity change, negative = inhibition [2] [%] | activity change, negative = inhibition [3] [%] | activity change, negative = inhibition [4] [%] | activity change, negative = inhibition [5] [%]
COc1ccc(CNC(=O)c2cc3n(n2)CC(C)(C(=O)NC2CCCC2)N(C)C3=O)cc1 (stereo unspecified) | 9.22 | 0 | 6.18 | 0.515 | 3.72
Cc1ccccc1Cn1cc(-c2ccncc2)cc1C(=O)N1CCCC1 | -8.84 | -3.61 | -7.52 | -22.4 | 5.4
COc1c2c(c(CO)c3c1C(=O)OC3)OC1(C)CCC3(O)C(C)(C)OC(=O)CCC3(C)C1C2 (stereo unspecified) | 0.377 | 1.24 | 11.7 | -11.3 | -5.64
Cn1nc(C(=O)N2CCOc3ccc(CCC(N)=O)cc3C2)c2ccccc21 | -2.48 | -6.04 | -1.48 | -2.88 | -1.69
O=C(Nc1ccccc1F)N1CC2CCC(C1)N2Cc1ccc(-c2cc(F)cc(F)c2)cc1 | -0.989 | -3.27 | -5.85 | -8.88 | -5.26
COc1ccccc1CNC(=O)C1(C)Cn2nc(-c3ccccc3)cc2C(=O)N1CCC(C)C (stereo unspecified) | 5.75 | 0.819 | 7.73 | 8.63 | 2.66
CCN1CCN(Cc2ccc(Nc3ncc(F)c(-c4cc(F)c5nc(C)n(C(C)C)c5c4)n3)nc2)CC1 | -83.4 | -62.9 | -75.8 | -69.1 | -74.1
COCCc1ccc(OCC(O)CNC(C)C)cc1 (stereo unspecified) | 11 | 12.7 | 11.3 | -2.77 | 3.86
CN(C)C[C@@H]1CN(Cc2cccnc2)C[C@H]1NC(=O)CCn1cccn1 | -1.66 | 2.15 | -0.078 | 0.68 | 5.44
CCOC(=O)CNC(=O)C1(C)Cn2nc(-c3ccc(OC)cc3)cc2C(=O)N1C (stereo unspecified) | 2.37 | 0.946 | 4.88 | 9.69 | 2.16
COc1cccc(NC(=O)Cn2c(=O)oc3cc(S(=O)(=O)N4CCCCC4)ccc32)c1 | -0.687 | 0 | 5.63 | -3.85 | -29.7
O=C(c1cc2n(n1)CC(c1ccc(Cl)cc1)OC2)N1CCCCC1 (stereo unspecified) | -2.38 | -2.28 | -0.025 | -4.96 | -8.55
O=C(NCCCc1ccccc1)C1CN(C2CCCC2)C(=O)N1 (stereo unspecified) | -8.28 | -6.46 | -4.57 | -7.95 | -9.2
Cc1ccc(CN2C(=O)c3cc(C(C)(C)C)nn3CC2(C)C(=O)NCc2ccccc2)cc1 (stereo unspecified) | 4.54 | 0 | 7.91 | 5.32 | 2.89
CC(C)CNC(=O)/C=C/CCCCc1ccc2c(c1)OCO2 | -1.38 | 1.36 | 4.69 | -11.3 | -7.02
CC(C)CNC(=O)c1ccc2c(=O)n(C(C)C)c3nn(CC(=O)Nc4ccc(Cl)cc4)c(=O)n3c2c1 | 3.24 | 0 | 6.88 | 4.28 | 5.68
Cc1ccc(Cn2c(=O)c3ccccc3n3c(CCC(=O)NCCN4CCCC4)nnc23)cc1 | -9.95 | 0.569 | -47.5 | 2.67 | -6.89
Cc1ccc(OCCSc2ncccn2)c(Br)c1 |  | 8.76 |  | -34.9 | -1.14
Cc1ccc2c(c1)c(-n1cccc1)c1n2CC(C)(C(=O)NC2CCC(C)CC2)N(Cc2ccc(Cl)cc2)C1=O (stereo unspecified) | -11.1 | 1.9 | -3.9 | -14.7 | -2.42
Cc1ccc(CCNC(=O)CCn2ccc3cc(S(=O)(=O)N4CCC(C)CC4)ccc32)cc1 | 2.54 | 3.42 | 1.03 | -8.68 | -2.48
